# Measured values as given in patent US10329243B2, “Biphenyl derivative and uses thereof” (XI'AN LIBANG PHARMACEUTICAL CO., LTD, priority 2015, dated 2019).
# What was measured:
# [1] = test system: rats with permanent cerebral ischemia injury; experiment: Neurological impairment score (Longa 5-grade), permanent cerebral ischemia model; assay type: in vivo, SD rats; conditions: edaravone 3 mg/kg
# Description: 336 healthy male SD rats weighing 250-300 g, provided by the Experimental Animal Center of the Fourth Military Medical University, were randomly divided into […]: the sham operation group, the permanent cerebral ischemia model group, and Examples 1-12 groups. The biphenyl derivatives used in each of the Examples 1-12 groups were the same as those in Example 13.
# Rats were intraperitoneally injected with 10% chloral hydrate 350 mg/kg after anesthesia and opened up at the center of the neck in accordance with the Zea Longa modified method. The right common carotid artery was separated, and the right external carotid artery branches was ligated. A small opening was made at the distal end of the external carotid artery, and a previously prepared thread was inserted through the common carotid artery and the external carotid artery bifurcation into the internal carotid artery, till the anterior end of the middle cerebral artery, with an immersed depth of 18 to 19 mm. The thread was then secured, and the wound was sutured layer by layer. After the operation, the rats were placed in a clean incubator to wake up. […]
# The neurological impairment was scored in each group 24 h after the embolism. […]
# [2] = test system: rats with cerebral ischemic reperfusion injury; experiment: Neurological impairment score (Longa 5-grade), cerebral ischemic reperfusion MCAO model; assay type: in vivo, SD rats; conditions: ischemic reperfusion rat model; edaravone 3 mg/kg
# Description: 336 healthy male SD rats weighing 250-300 g, provided by the Experimental Animal Center of the Fourth Military Medical University, were randomly divided into 14 groups: the sham operation group, the ischemic reperfusion group, and Examples 1-12 groups (i.e., the Example groups).
# Rats were intraperitoneally injected with 10% chloral hydrate 350 mg/kg after anesthesia and opened up at the center of the neck in accordance with the Zea Longa modified method. The right common carotid artery was separated, and the right external carotid artery branches was ligated. A small opening was made at the distal end of the external carotid artery, and a previously prepared thread was inserted through the common carotid artery and the external carotid artery bifurcation into the internal carotid artery, till the anterior end of the middle cerebral artery, with an immersed depth of 18 to 19 mm. The thread was then secured, and the wound was sutured layer by layer. After the operation, the rats were placed in a clean incubator to wake up. […] The sham operation group, the ischemic reperfusion group, and the Example groups were prepared strictly according to the requirements of the cerebral ischemic reperfusion model, while in the sham operation group the thread was put only into the external carotid artery. […]
# The neurological impairment was scored in each group 24 h after reperfusion. […]
compound,measurement,setting,value
"CC1=NN(c2ccccc2)C(=O)C1 [Edaravone injection, edaravone, reference compound]",Neurological impairment score,[1],2.8
same,Neurological impairment score,[2],2.6
